The RNAGym collection of RNA variant scans (doi:10.7554/elife.90254)
The source gives no read counts; variants with many changes may rest on few reads.

B1: LINE1-mini (parent)
chain: GGCAGAGCUCAACACAGCGUGGCAAAGUGGCUGUGGCUAGACUGCC

Variants of: B1
Test: self-cleavage, relative activity (ratio to wild type); higher = more cleavage; in vitro, sequencing; the parent is a self-cleaving ribozyme
C15A C31A G36A showed a self-cleavage of 0.06. For C15G A26C G44A, the self-cleavage was 0.02. G19A U20A G33C gave a self-cleavage of 0.01. Work on G2U G30U A39U yielded a self-cleavage of 0.06. For G2A A6C C13A U20G G21U U34C, the self-cleavage was 0.1. Variant G1A A12C C23G has a self-cleavage of 0.03. In the case of U20C G40U A41C, the self-cleavage is reported as 0.12. A12G A25U G40U showed a self-cleavage of 0.03. Work on G22C G44C C46G yielded a self-cleavage of 0. C10G C13A G44U gave a self-cleavage of 0.01. In the case of G5U C8U C18U G22U G33C, the self-cleavage is reported as 0.18. For G5A G7C A12G C18G A26G G27A A41C C42G, the self-cleavage was 0.17. For A16U G21A G30U G40C, the self-cleavage was 0.04. A6G C10U C18G G36C gave a self-cleavage of 0.02. G2C A26U G27U C37G C42A gave a self-cleavage of 0. Work on G5A U9G C18A C31U G40A yielded a self-cleavage of 0.15. With C8G C13G G30A the self-cleavage was 0.01. C3A G5C G7U A12C A39C showed a self-cleavage of 0.07. C8A U9A A24G A25C U32C G35A C42U gave a self-cleavage of 0.06. A14U G17U A39U G40U gave a self-cleavage of 0.16. Variant C23A A24C G27U G33A U38A has a self-cleavage of 0.08. A14U G27U G30A C42A showed a self-cleavage of 0.05. In the case of G7U C15A A25G, the self-cleavage is reported as 0.08. In the case of A6C G7A C8G A14U G22U C23U U38G C42G, the self-cleavage is reported as 0.23. A6G A25G U34C gave a self-cleavage of 0.02. G2U A26U G30C U32A C46U gave a self-cleavage of 0.02. Variant A6C G30U C31A has a self-cleavage of 0.06. Variant G1A C3A G27C G29A G30U C31U A39U G40U C46U has a self-cleavage of 1.23. Variant G19U G30C A39U has a self-cleavage of 0.05. Work on C10A G19U G21U yielded a self-cleavage of 0.11. G2U A12G C46A showed a self-cleavage of 0.03. In the case of G2C C13G A16C A25C, the self-cleavage is reported as 0.02. Variant C8A G19U A41G has a self-cleavage of 0.19. For C8G A26G C37A G44U, the self-cleavage was 0.06. In the case of C3G C8A A12G C15A G33A G35U, the self-cleavage is reported as 0.13. C31A C37A C46G gave a self-cleavage of 0.08. Work on C8A U9A G29U yielded a self-cleavage of 0.22. A11C C31U U34C gave a self-cleavage of 0.01. In the case of C10A G29U U34A A41C, the self-cleavage is reported as 0.02. Work on A24U G27U G33A yielded a self-cleavage of 0.01. Variant A6U G40A U43A has a self-cleavage of 0.1. Work on C8A C10U C13G G17A G30A C37A yielded a self-cleavage of 0.04. Variant A6G C37U C46A has a self-cleavage of 0.03. In the case of G19A A26G C31G C37U G40U C45G, the self-cleavage is reported as 0.01. Work on G7A C18A A26G U28C G44A yielded a self-cleavage of 0.06. C13U G21A G36C gave a self-cleavage of 0.03. Variant G5A G22U A41U has a self-cleavage of 0.22. C15U G21A C37G showed a self-cleavage of 0.03. For G2U G7C G22U G36C C37A, the self-cleavage was 0.19. With G1A G2U G33U A39C the self-cleavage was 0.06. Work on C13U G36C G40A yielded a self-cleavage of 0.03. G2C C3U C8U G30U G44A showed a self-cleavage of 0.61. Work on A14U A16C U32C A39U A41U yielded a self-cleavage of 0.02. Work on G7U C10A A11C A39U yielded a self-cleavage of 0.02. G5C A6U A16C C31G showed a self-cleavage of 0.03. Work on C8G C13G C23U C42G yielded a self-cleavage of 0.06. With G17A U20G C37A U38G the self-cleavage was 0.01. With A16G G27C U34C the self-cleavage was 0.04. C10A C23A U32A U34C gave a self-cleavage of 0.01. Variant U9A G22C G33A G44C has a self-cleavage of 0.05. With A12U U34G U38G the self-cleavage was 0. C13A C18A U28C G44A showed a self-cleavage of 0.05. G1U C8A C13A C45U showed a self-cleavage of 0.28. Variant A24C C31G C45G has a self-cleavage of 0.03. A4C C10U A26G showed a self-cleavage of 0.03. In the case of U9A C10U A14U G30U, the self-cleavage is reported as 0.01. C10U A14C G29A G40U gave a self-cleavage of 0.02. With G5A G21U A24U A25C C31G G40U the self-cleavage was 0.02. A16G U20G G29C C37U C45U gave a self-cleavage of 0.01. C3U U9A C37G G44A C45U showed a self-cleavage of 0.02. Variant U9A A12C C31U has a self-cleavage of 0.04. Work on G21C G36C C37G C46G yielded a self-cleavage of 0.07. G1A G7U C46A showed a self-cleavage of 0.1. G2U C10G C31U G40U showed a self-cleavage of 0. For A6G A25G U38A, the self-cleavage was 0.01. In the case of G7C G19A G27C, the self-cleavage is reported as 0.11. With C13A G27A C31U A39G the self-cleavage was 0.08. Variant A6G G36A G44C has a self-cleavage of 0.18. For G30A A39C U43C, the self-cleavage was 0.04. C3G U9G G21A gave a self-cleavage of 1.36. For U20C C42G C45U C46U, the self-cleavage was 0.03. Variant U32A G33A A41U C42U has a self-cleavage of 0.06. C3A G5U G35C gave a self-cleavage of 0.11. With G2U C10U C15A U20C G21U A25U the self-cleavage was 0.02. For G21U A24U G33A, the self-cleavage was 0.11. In the case of A11U U20A G22U G27C C37G A41U, the self-cleavage is reported as 0. Variant G2C G5U C31A has a self-cleavage of 0.05. G1U C15A G19U G33A C37A C42G G44A gave a self-cleavage of 0. C8A G22A G40A U43G gave a self-cleavage of 0.17. In the case of U9A C15G C31U G33U, the self-cleavage is reported as 0.22. C3G A14C G40U U43G gave a self-cleavage of 0.07. In the case of G17U U32G C42A, the self-cleavage is reported as 0.13. Variant G5U G17C A39G has a self-cleavage of 0.09. In the case of A6G A14U G21U C42U, the self-cleavage is reported as 0.03. In the case of G2C G7A C8U C10A U28C C37U, the self-cleavage is reported as 0.01. For G2U C15U G22C, the self-cleavage was 0.03. For G2A G7A C15G G21U, the self-cleavage was 0.36. Work on A11U G40U C45U yielded a self-cleavage of 0.02. C10U G30U G33U showed a self-cleavage of 0.04. Variant A12U U20G A24U G35A has a self-cleavage of 0.11. Work on A4U C13A A16C C23U A25U yielded a self-cleavage of 0.05. C3G A11C G17A G27U U28G showed a self-cleavage of 0.03. Work on G19U U28A C46A yielded a self-cleavage of 0.82. With G5A G7U A26U the self-cleavage was 1.23. Variant G17C G27A U32C has a self-cleavage of 0.1. With C3G G17A G21U G27A the self-cleavage was 0.09. Variant G2C A14G C46A has a self-cleavage of 0.01. For A4U G36C A41U, the self-cleavage was 0.03. With G2C G21A G27C the self-cleavage was 0.07. For G1U A11U C31G U38C, the self-cleavage was 0. Variant A11G U28C G33A has a self-cleavage of 0.02. Variant G22A C23G G30C U34C C46A has a self-cleavage of 0.01. With C3A C13G A26U C31G G40C G44U the self-cleavage was 0. G1U G2C C8A G19C C31U G36A showed a self-cleavage of 0.02. In the case of G5U G21A C23U A24U U28A G36U, the self-cleavage is reported as 0.01. With C15G G19U G21C U38C the self-cleavage was 0.02. C8U A26U G29C C31U C42G showed a self-cleavage of 0.16. For G21U U28C G30U G33U, the self-cleavage was 0.85. For G21C G27A G29U C37A C42G U43G, the self-cleavage was 0.01. G7U G35A A39G gave a self-cleavage of 0.03. C10A G21A U28C A41U gave a self-cleavage of 0. C10A A25C C46U showed a self-cleavage of 0.02. Work on G1U G2U U20A U28A G30C G33A yielded a self-cleavage of 0.01. A26U G29C C31A U43C gave a self-cleavage of 0.03. Variant G2A G5U A24C U34G U38C has a self-cleavage of 0.08. In the case of A12C A16U G22U, the self-cleavage is reported as 0.03. For A4G A39G C45U C46U, the self-cleavage was 0.13. With A4G C8A G35C U38A A41U the self-cleavage was 0.05. In the case of G1A G30C C37U, the self-cleavage is reported as 0.11. Variant G5U C13A U43C has a self-cleavage of 0.05. A11G A16C C23U U34G C37G A39C G40U gave a self-cleavage of 0.01. For A25G G35U C46G, the self-cleavage was 0.2. With A24C C37A C45G the self-cleavage was 0.02. In the case of C37U G40U A41U C45G, the self-cleavage is reported as 0.89. For G7U A12G A26C A39C, the self-cleavage was 0.36. C10U G21A U38G gave a self-cleavage of 0.04. C13G G22A A25U C45U gave a self-cleavage of 0.31. A12U C23U G33A showed a self-cleavage of 0.1. In the case of G2A G17A A25C G44U, the self-cleavage is reported as 0.19. Work on A4U A6G A26U G33U C42U yielded a self-cleavage of 0.14. For G7A A14U C15A G21U G30U G36U, the self-cleavage was 0.03. Work on C8G C15U G17A A26U G27C C31G G35U U43A C46U yielded a self-cleavage of 0. For C13U A25U C45A, the self-cleavage was 0.07. C3G U9C C15G A16C C18A U38G gave a self-cleavage of 0.02. For G7A A25G A41G, the self-cleavage was 0.04. C8A U28C U43A showed a self-cleavage of 0.19. Work on G1C G36C A41U C46A yielded a self-cleavage of 0.02. G2C U9C G27U G33A showed a self-cleavage of 0.02. In the case of G2A U9G G40U, the self-cleavage is reported as 0.07. Variant G17A G35A C37U has a self-cleavage of 0.05. For G1C A4C G33U, the self-cleavage was 0.01. A11G G27U G29U G40U showed a self-cleavage of 0.01. Work on G1C G2A C3U G33C U34G yielded a self-cleavage of 0.06. In the case of G27U G30U G35U G40C, the self-cleavage is reported as 0.04. With G1U G21U C42U the self-cleavage was 0.26. Work on G2U G19U G27U yielded a self-cleavage of 0.05. In the case of A16U G19C U20A C31G G44A, the self-cleavage is reported as 0.02. With G2C C3U G17U C46A the self-cleavage was 0.04. G2A G7C A14G G27U showed a self-cleavage of 0.2. Work on C13A A14U U34C A41C yielded a self-cleavage of 0.03. For C13A G22A U43C, the self-cleavage was 0. With C8G C37G U43A the self-cleavage was 0. With C13A C23G G30U U34G A39G the self-cleavage was 0.03. G29U U32G C45G showed a self-cleavage of 0.13. Work on U9C C13U G19C G35A yielded a self-cleavage of 0.03. C3U U9C C15A U28C C46G showed a self-cleavage of 0.02. A14C U20G A24G C31A gave a self-cleavage of 0.
